The text below walks through data of the supplement of paper PMC12217912.

Sequences and labels used below:
B1: TEV protease; numbered along this chain (parent)
chain: MGESLFKGPRDYNPISSSICHLTNESDGHTTSLYGIGFGPFIITNKHLFRRNNGTLVVQSLHGVFKVKDTTTLQQHLVDGRDMIIIRMPKDFPPFPQKLKFREPQREERICLVTTNFQTKSMSSMVSDTSCTFPSGDGIFWKHWIQTKDGQCGSPLVSTRDGFIVGIHSASNFTNTNNYFTSVPKNFMELLTNQEAQQWVSGWRLNADSVLWGGHKVFMVKPEEPFQPVKEATQL

Some of the results follow. Sequences were assembled here from the parent chain. Inactive controls read about 0.05.

This assay covers variants of B1. Kind of assay: raw area under fraction-flipped curve 0-4 h after induction (AUC4h, not background-subtracted), DNA-recorder readout of cleavage of the substrate (dimensionless); higher = more cleavage of the substrate by the protease variant. The conditions noted are these: temperature: 34 °C; time window: 0-4 h after rhamnose induction. As to the method:
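In vivo DNA recorder in E. coli TOP10(DE3) ΔrhaA at 34 °C. Each TEVp single-site mutant (parent TEVp 0) is paired with a single-site variant of the 7-mer TEVs (canonical ENLYFQ|S). The substrate sits between flexible linkers in a Bxb1-sfGFP-TEVs-SsrA fusion, so cleavage stabilises Bxb1 and speeds flipping of a recombination array, read by NGS. The value is the raw area under the fraction-flipped curve over 0-4 h after rhamnose induction (AUC4h), with ≥20 reads per time point. It is not background-subtracted; inactive controls average about 0.047.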
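Further: Bxb1 expression induced with 0.2% (w/v) L-rhamnose at OD600 near 0.5, cultures sampled hourly, flipped fraction per protease–substrate barcode pair counted by paired-end Illumina sequencing.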

Consider MGESLFKGPRDYNPISSSICHLTNESDGHTTSLYGIGFGPFVITNKHLFRRNNGTLVVQSLHGVFKVKDTTTLQQHLVDGRDMIIIRMPKDFPPFPQKLKFREPQREERICLVTTNFQTKSMSSMVSDTSCTFPSGDGIFWKHWIQTKDGQCGSPLVSTRDGFIVGIHSASNFTNTNNYFTSVPKNFMELLTNQEAQQWVSGWRLNADSVLWGGHKVFMVKPEEPFQPVKEATQL [I42V], for which the “area with substrate ENAYFQS” value came out at 0.063, the “area with substrate ENCYFQS” value was 0.0593, the “area with substrate ENDYFQS” value was 0.061 and the “area with substrate ENEYFQS” value was 0.0599. Besides, the “area with substrate ENGYFQS” value came out at 0.0746, the “area with substrate ENKYFQS” value was 0.0648, the “area with substrate ENNYFQS” value stood at 0.0525 and the “area with substrate ENPYFQS” value worked out at 0.059. In addition, the “area with substrate ENQYFQS” value turned out to be 0.042, the “area with substrate ENRYFQS” value came out at 0.0717, the “area with substrate ENSYFQS” value is 0.0505 and the “area with substrate ENVYFQS” value worked out at 0.086. For the same variant, the “area with substrate ENYYFQS” value is 0.0626.

For the variant MGESLFKGPRDYNPISSSICHLTNESDGHTTSLYGIGFGPFIITNKHLQRRNNGTLVVQSLHGVFKVKDTTTLQQHLVDGRDMIIIRMPKDFPPFPQKLKFREPQREERICLVTTNFQTKSMSSMVSDTSCTFPSGDGIFWKHWIQTKDGQCGSPLVSTRDGFIVGIHSASNFTNTNNYFTSVPKNFMELLTNQEAQQWVSGWRLNADSVLWGGHKVFMVKPEEPFQPVKEATQL [F49Q], the “area with substrate ENAYFQS” value came out at 0.0539, the “area with substrate ENCYFQS” value was 0.0557, the “area with substrate ENDYFQS” value was found to be 0.0572 and the “area with substrate ENEYFQS” value was found to be 0.0858. The “area with substrate ENGYFQS” value is 0.0387, the “area with substrate ENHYFQS” value stood at 0.0582, the “area with substrate ENIYFQS” value was 0.057 and the “area with substrate ENKYFQS” value was 0.0475. Moreover, the “area with substrate ENMYFQS” value was 0.0679, the “area with substrate ENPYFQS” value worked out at 0.0617, the “area with substrate ENQYFQS” value worked out at 0.0502 and the “area with substrate ENSYFQS” value was 0.059. Moreover, the “area with substrate ENTYFQS” value is 0.0632, the “area with substrate ENVYFQS” value amounted to 0.0537, the “area with substrate ENWYFQS” value turned out to be 0.0416 and the “area with substrate ENYYFQS” value is 0.033.

As to MGESLFKGPRDYNPISSSICHLTNESDGHTTSLYGIGFGPFIITNKHLYRRNNGTLVVQSLHGVFKVKDTTTLQQHLVDGRDMIIIRMPKDFPPFPQKLKFREPQREERICLVTTNFQTKSMSSMVSDTSCTFPSGDGIFWKHWIQTKDGQCGSPLVSTRDGFIVGIHSASNFTNTNNYFTSVPKNFMELLTNQEAQQWVSGWRLNADSVLWGGHKVFMVKPEEPFQPVKEATQL [F49Y], the “area with substrate ENAYFQS” value stood at 0.0787, the “area with substrate ENCYFQS” value turned out to be 0.0977, the “area with substrate ENDYFQS” value is 0.0615 and the “area with substrate ENEYFQS” value stood at 0.0297. Besides, the “area with substrate ENGYFQS” value worked out at 0.0612, the “area with substrate ENHYFQS” value was 0.0405, the “area with substrate ENIYFQS” value was determined as 0.0697 and the “area with substrate ENMYFQS” value was determined as 0.0485. Also, the “area with substrate ENNYFQS” value amounted to 0.0531, the “area with substrate ENPYFQS” value was found to be 0.0496, the “area with substrate ENQYFQS” value amounted to 0.06 and the “area with substrate ENSYFQS” value was determined as 0.0642. Besides, the “area with substrate ENTYFQS” value was found to be 0.0566 and the “area with substrate ENVYFQS” value came to 0.0498.

Consider MGESLFKGPRDYNPISSSICHLTNESDGHTTSLYGIGFGPFIITNKHLDRRNNGTLVVQSLHGVFKVKDTTTLQQHLVDGRDMIIIRMPKDFPPFPQKLKFREPQREERICLVTTNFQTKSMSSMVSDTSCTFPSGDGIFWKHWIQTKDGQCGSPLVSTRDGFIVGIHSASNFTNTNNYFTSVPKNFMELLTNQEAQQWVSGWRLNADSVLWGGHKVFMVKPEEPFQPVKEATQL [F49D], for which the “area with substrate ENAYFQS” value was 0.0585, the “area with substrate ENCYFQS” value turned out to be 0.0639, the “area with substrate ENDYFQS” value was found to be 0.0587 and the “area with substrate ENEYFQS” value came out at 0.0525. Besides, the “area with substrate ENFYFQS” value was found to be 0.0174, the “area with substrate ENGYFQS” value is 0.0668, the “area with substrate ENHYFQS” value was determined as 0.0823 and the “area with substrate ENIYFQS” value stood at 0.0503. Further, the “area with substrate ENKYFQS” value amounted to 0.0662, the “area with substrate ENMYFQS” value worked out at 0.0524, the “area with substrate ENNYFQS” value was 0.0683 and the “area with substrate ENPYFQS” value stood at 0.054. The “area with substrate ENQYFQS” value came to 0.0645, the “area with substrate ENRYFQS” value amounted to 0.0569, the “area with substrate ENSYFQS” value stood at 0.0701 and the “area with substrate ENTYFQS” value amounted to 0.0806. The “area with substrate ENVYFQS” value is 0.0577, the “area with substrate ENWYFQS” value stood at 0.0233 and the “area with substrate ENYYFQS” value stood at 0.0568.

For MGESLFKGPRDYNPISSSICHLTNESDGHTTSLYGIGFGPFIDTNKHLFRRNNGTLVVQSLHGVFKVKDTTTLQQHLVDGRDMIIIRMPKDFPPFPQKLKFREPQREERICLVTTNFQTKSMSSMVSDTSCTFPSGDGIFWKHWIQTKDGQCGSPLVSTRDGFIVGIHSASNFTNTNNYFTSVPKNFMELLTNQEAQQWVSGWRLNADSVLWGGHKVFMVKPEEPFQPVKEATQL [I43D], the “area with substrate ENAYFQS” value was 0.045, the “area with substrate ENCYFQS” value came out at 0.0384, the “area with substrate ENDYFQS” value was found to be 0.0348 and the “area with substrate ENEYFQS” value worked out at 0.0428. In addition, the “area with substrate ENGYFQS” value was found to be 0.0429, the “area with substrate ENHYFQS” value was 0.0476, the “area with substrate ENKYFQS” value came out at 0.0427 and the “area with substrate ENPYFQS” value was 0.0458. The “area with substrate ENQYFQS” value was found to be 0.0437, the “area with substrate ENRYFQS” value was 0.0342, the “area with substrate ENSYFQS” value worked out at 0.0521 and the “area with substrate ENTYFQS” value was 0.038. Besides, the “area with substrate ENVYFQS” value was found to be 0.0371.

As for MGESLFKGPRDYNPISSSICHLTNESDGHTTSLYGIGFGPFIHTNKHLFRRNNGTLVVQSLHGVFKVKDTTTLQQHLVDGRDMIIIRMPKDFPPFPQKLKFREPQREERICLVTTNFQTKSMSSMVSDTSCTFPSGDGIFWKHWIQTKDGQCGSPLVSTRDGFIVGIHSASNFTNTNNYFTSVPKNFMELLTNQEAQQWVSGWRLNADSVLWGGHKVFMVKPEEPFQPVKEATQL [I43H], the “area with substrate ENAYFQS” value was determined as 0.0368, the “area with substrate ENDYFQS” value turned out to be 0.0435, the “area with substrate ENEYFQS” value was 0.0431 and the “area with substrate ENGYFQS” value amounted to 0.0493. Moreover, the “area with substrate ENHYFQS” value is 0.0474, the “area with substrate ENMYFQS” value came to 0.0399, the “area with substrate ENNYFQS” value was 0.0221 and the “area with substrate ENPYFQS” value stood at 0.0404. The “area with substrate ENQYFQS” value stood at 0.0455, the “area with substrate ENRYFQS” value amounted to 0.0315, the “area with substrate ENSYFQS” value turned out to be 0.044 and the “area with substrate ENTYFQS” value is 0.0409. The “area with substrate ENVYFQS” value was found to be 0.0388, the “area with substrate ENWYFQS” value worked out at 0.0199 and the “area with substrate ENYYFQS” value turned out to be 0.0484.

Regarding MGESLFKGPRDYNPISSSICHLTNESDGHTTSLYGISFGPFIITNKHLFRRNNGTLVVQSLHGVFKVKDTTTLQQHLVDGRDMIIIRMPKDFPPFPQKLKFREPQREERICLVTTNFQTKSMSSMVSDTSCTFPSGDGIFWKHWIQTKDGQCGSPLVSTRDGFIVGIHSASNFTNTNNYFTSVPKNFMELLTNQEAQQWVSGWRLNADSVLWGGHKVFMVKPEEPFQPVKEATQL [G37S], the “area with substrate ENAYFQS” value came to 0.0425, the “area with substrate ENCYFQS” value came out at 0.0506, the “area with substrate ENEYFQS” value was 0.0485 and the “area with substrate ENHYFQS” value amounted to 0.0546. The “area with substrate ENNYFQS” value was determined as 0.0603, the “area with substrate ENPYFQS” value was 0.0463, the “area with substrate ENQYFQS” value is 0.0569 and the “area with substrate ENSYFQS” value was 0.0511. Besides, the “area with substrate ENVYFQS” value was 0.0614 and the “area with substrate ENWYFQS” value worked out at 0.0485.

Turning to MGESLFKGPRDYNPISSSICHLTNESDGHTTSLYGIGFGQFIITNKHLFRRNNGTLVVQSLHGVFKVKDTTTLQQHLVDGRDMIIIRMPKDFPPFPQKLKFREPQREERICLVTTNFQTKSMSSMVSDTSCTFPSGDGIFWKHWIQTKDGQCGSPLVSTRDGFIVGIHSASNFTNTNNYFTSVPKNFMELLTNQEAQQWVSGWRLNADSVLWGGHKVFMVKPEEPFQPVKEATQL [P40Q], the “area with substrate ENAYFQS” value is 0.0969, the “area with substrate ENCYFQS” value came to 0.0768, the “area with substrate ENDYFQS” value was 0.0512 and the “area with substrate ENEYFQS” value amounted to 0.0651. The “area with substrate ENFYFQS” value came to 0.047, the “area with substrate ENGYFQS” value amounted to 0.0557, the “area with substrate ENIYFQS” value came to 0.104 and the “area with substrate ENKYFQS” value came to 0.0633. Also, the “area with substrate ENMYFQS” value worked out at 0.0923, the “area with substrate ENNYFQS” value amounted to 0.0332, the “area with substrate ENQYFQS” value came out at 0.0607 and the “area with substrate ENSYFQS” value amounted to 0.0584. The “area with substrate ENTYFQS” value worked out at 0.0609 and the “area with substrate ENWYFQS” value came to 0.0727.

Consider MGESLFKGPRDYNPISSSICHLTNESDGHTTSLYGIGFGPFIINNKHLFRRNNGTLVVQSLHGVFKVKDTTTLQQHLVDGRDMIIIRMPKDFPPFPQKLKFREPQREERICLVTTNFQTKSMSSMVSDTSCTFPSGDGIFWKHWIQTKDGQCGSPLVSTRDGFIVGIHSASNFTNTNNYFTSVPKNFMELLTNQEAQQWVSGWRLNADSVLWGGHKVFMVKPEEPFQPVKEATQL [T44N], for which the “area with substrate ENAYFQS” value turned out to be 0.0396, the “area with substrate ENDYFQS” value was 0.0548, the “area with substrate ENEYFQS” value was found to be 0.0429 and the “area with substrate ENFYFQS” value came out at 0.0536. Also, the “area with substrate ENGYFQS” value came out at 0.0386, the “area with substrate ENHYFQS” value amounted to 0.0403, the “area with substrate ENIYFQS” value turned out to be 0.0521 and the “area with substrate ENKYFQS” value was determined as 0.0453. Moreover, the “area with substrate ENNYFQS” value came to 0.047, the “area with substrate ENQYFQS” value was found to be 0.0541, the “area with substrate ENSYFQS” value is 0.0449 and the “area with substrate ENTYFQS” value came to 0.0591. For the same variant, the “area with substrate ENVYFQS” value was determined as 0.0455.
